# According to PMC4336329 (PLoS ONE, 2015):
# Screen size: about 310,000 compounds; about 14,000 (4.5%) showed an effect of 50% or more. The effect is printed as a negative number. Some of the results follow.
# Biological target: human ether-à-go-go-related gene (hERG) potassium channel (human, UniProt Q12809)
# Assay: primary screen, population patch clamp on CHO cells stably expressing hERG
# 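Note: peak tail current of the secondary pulse compared with the same well before compound.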
# human ether-à-go-go-related gene (hERG) potassium channel, sequence (Q12809 whole entry, looked up): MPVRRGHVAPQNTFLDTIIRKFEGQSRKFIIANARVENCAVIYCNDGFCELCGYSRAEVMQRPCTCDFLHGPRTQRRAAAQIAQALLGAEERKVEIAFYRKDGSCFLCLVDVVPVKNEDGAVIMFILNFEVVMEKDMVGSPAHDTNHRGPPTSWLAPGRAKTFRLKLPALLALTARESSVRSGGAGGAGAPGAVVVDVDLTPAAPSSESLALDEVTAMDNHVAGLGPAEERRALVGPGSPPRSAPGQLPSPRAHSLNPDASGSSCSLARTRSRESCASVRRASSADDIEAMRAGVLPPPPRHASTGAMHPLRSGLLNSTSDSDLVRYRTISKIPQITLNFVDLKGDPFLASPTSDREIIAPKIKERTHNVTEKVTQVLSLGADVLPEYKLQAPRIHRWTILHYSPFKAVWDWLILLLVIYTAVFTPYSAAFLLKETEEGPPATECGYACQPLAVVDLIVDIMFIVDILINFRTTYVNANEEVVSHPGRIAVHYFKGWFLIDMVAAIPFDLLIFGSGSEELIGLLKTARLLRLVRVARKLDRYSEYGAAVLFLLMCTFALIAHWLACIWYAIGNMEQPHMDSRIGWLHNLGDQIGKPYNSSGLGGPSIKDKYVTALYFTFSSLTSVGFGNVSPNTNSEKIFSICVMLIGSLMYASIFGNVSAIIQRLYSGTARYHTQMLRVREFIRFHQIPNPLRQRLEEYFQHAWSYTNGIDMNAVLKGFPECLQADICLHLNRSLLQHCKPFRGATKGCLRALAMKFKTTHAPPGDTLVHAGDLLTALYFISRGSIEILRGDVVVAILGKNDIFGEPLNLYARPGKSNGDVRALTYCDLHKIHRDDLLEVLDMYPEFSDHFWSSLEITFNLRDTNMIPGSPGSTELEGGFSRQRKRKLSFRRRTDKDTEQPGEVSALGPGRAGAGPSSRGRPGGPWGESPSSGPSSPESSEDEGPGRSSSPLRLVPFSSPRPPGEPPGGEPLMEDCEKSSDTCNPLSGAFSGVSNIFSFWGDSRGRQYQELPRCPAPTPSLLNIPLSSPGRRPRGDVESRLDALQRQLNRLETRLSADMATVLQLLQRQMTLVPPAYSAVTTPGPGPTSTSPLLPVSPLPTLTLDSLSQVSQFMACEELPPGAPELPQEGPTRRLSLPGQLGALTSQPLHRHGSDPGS
row,Structure (SMILES),"hERG current change (%, negative = inhibition) at 10uM"
1,Cc1cc(Cl)c(S(=O)(=O)NCc2ccncc2)cc1OCC(N)=O,1.62%
2,CC(=O)Nc1ccc(NC(=O)C(C)n2nc(C)c([N+](=O)[O-])c2C)cc1 (centres unmarked),7.8%
3,CC(SCc1ccc(C(=O)O)o1)c1ccc(C(=O)O)o1 (centres unmarked),19.9%
4,CCOc1ccc(-n2c(SC)nc3c(c2=O)SCC3)cc1,19.8%
5,Cc1cc(OC(=O)c2cccs2)c2c3c(c(=O)oc2c1)CCCC3,17.9%
6,COc1ccc(C(C)=O)cc1CSc1nnnn1-c1ccc(O)cc1,-21.5%
7,Cc1ccc(-n2c(O)c(C=NC3CCS(=O)(=O)C3)c3ccccc3c2=O)cc1C (centres unmarked),-27.1%
8,CCOP(=O)(OCC)C(O)c1ccc(OC)cc1 (centres unmarked),13.6%
9,CCOc1ccc(NC(=O)COC(=O)CCCc2c[nH]c3ccccc23)cc1,-14.4%
10,CCOc1ccc(C(C)=O)cc1CSc1nnc(-c2ccncc2)n1CCOC,-0.498%
11,N#CC1(C#N)CC(C=O)=C(N)C1(C#N)CC(=O)c1ccc(F)cc1 (centres unmarked),7.03%
12,CC(C)(C)C1=CC=C(C(C)(C)C)C(=O)C1=O,11.6%
13,COc1ccc(N2CCN(C3CCCN(Cc4cccc(C(C)=O)c4)C3)CC2)cc1 (centres unmarked),-30.2%
14,COc1ccc2c(c1)C(C1=C(O)CC(C)(C)CC1=O)C1=C(CC(C)(C)CC1=O)O2 (centres unmarked),-1.82%
15,CC1CCCC(C)N1C(=O)c1cccc2c1-c1ccccc1/C2=N/O (centres unmarked),9.16%
16,CCNC(=O)NC(=O)CSc1ccccc1F,10.7%
17,Cc1ccc(S(=O)(=O)N2CCCCC2)cc1NC(=O)CCOc1ccccc1,8.89%
18,O=C1CCCC2=C1Sc1ccccc1N2,24.7%
19,Cc1n[nH]c(=O)c2c(NC(=O)CSc3nn(-c4ccc(F)cc4)c(=S)s3)oc(C)c12,-27.5%
20,CCOc1ccc2ncc(C(=O)c3ccc(OC)cc3)c(N3CCN(CC)CC3)c2c1,-74.5%
21,CCC(NS(=O)(=O)c1cn(C)nc1C)c1ccccc1 (centres unmarked),21.2%

row,Structure (SMILES),"hERG current change (%, negative = inhibition) at 10uM"
1,N=c1c(C(=O)NCc2ccco2)cc2c(=O)n3ccccc3nc2n1CC1CCCO1 (centres unmarked),-76%
2,Clc1ccc(-c2noc(CCCc3ccccc3)n2)cc1,3.19%
3,Cc1cc(NS(=O)(=O)c2ccc(NC(=O)/C=C/c3ccc(Br)cc3)cc2)no1,20.1%
4,COc1ccc(C(C)=O)cc1CC(=O)N(Cc1ccccc1)c1ccccc1,-33.4%
5,CCC1CN(C(=O)N2CCC(C(=O)Nc3ccccc3OC)CC2)c2ccccc2O1 (centres unmarked),4.54%
6,O=C(CCc1ccccc1)N/N=C\c1cc2c(cc1Br)OCO2,5.19%
7,Nc1cccc2cc(-c3ccccc3)oc12,-13.1%
8,O=c1[nH]cc([N+](=O)[O-])cc1Br,2.05%
9,CCOC(=O)C(NC(=O)NC1CCCCC1)(c1ccccc1)C(F)(F)F (centres unmarked),-3.51%
10,O=C(CSc1ccc2nnc(-c3ccccn3)n2n1)Nc1nccs1,-27.6%
11,O.OC[C@H]1O[C@H](OC[C@H]2O[C@H](OC[C@H]3O[C@H](O[C@]4(CO)O[C@H](CO)[C@@H](O)[C@@H]4O)[C@H](O)[C@@H](O)[C@@H]3O)[C@H](O)[C@@H](O)[C@H]2O)[C@H](O)[C@@H](O)[C@H]1O,15.6%
12,Cc1cccnc1NC(=O)c1ccc(S(=O)(=O)N2CC(C)OC(C)C2)cc1 (centres unmarked),-1.37%
13,CC1CCN(C(=O)c2ccccc2NS(=O)(=O)c2ccccc2)CC1,8.52%
14,COc1ccc(OC)c(NC(=O)c2nc(S(=O)(=O)Cc3ccccc3)ncc2Cl)c1,8.43%
15,Cc1cc(N2CCC(C)CC2)nc(-c2ccccc2O)n1,4.32%
16,OC(CNc1nc(C(F)(F)F)nc2ccccc12)c1ccccc1 (centres unmarked),-17%
17,CC(C)=CCC/C(C)=C/C=N/NC(=O)c1ccccc1[N+](=O)[O-],-4.43%
18,Cc1cnc(C(=O)OCC(=O)N2CCN(S(=O)(=O)c3ccc(Cl)cc3)CC2)cn1,4.81%
19,COc1cc2nc(CN3CCOCC3)n(CC(=O)N3CCCCCC3)c(=O)c2cc1OC,9.73%
20,N#CC1(NC(=O)COc2cc(F)ccc2[N+](=O)[O-])CCCCC1,-0.195%
